Measured values published in the supplement of paper PMC4967469.
By IC50 is meant the dose at which the fit gives 50% viability; a fit beyond the top or the lowest dose is shown as a bound at that dose. AUC, from the same fit, is the share of area under the viability curve across the 256-fold dose range; it is 1 without any effect and falls as sensitivity rises. For part of these data: An inferred top dose is not printed in the source and was worked back from the curve model.

Tests used:
Assay in all cases: Viability of human cancer cell lines after 72 h of drug (GDSC screen)
[1] = compound: C=CC(=O)Nc1cc(NC(=O)c2ccc(C)c(NC(=O)c3ccno3)c2)cc(C(F)(F)F)c1 [QL-XI-92]; settings: top dose 10.24 µM; top dose inferred
Method: (§1)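 Human cancer cell lines in 384-well plates, medium with 10% serum, drug for 72 h over a 256-fold dose range (nine 2-fold or five 4-fold steps up to the top dose). Adherent lines were fixed and stained with the nucleic acid dye Syto60, suspension lines read with resazurin; signal relative to control wells, capped at 0 and 100%. One two-parameter sigmoid per drug and line, fitted in a mixed model over all curves with the slope shared within a line.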

[2] = compound: CCC1=C[C@@H]2CN(C1)Cc1c([nH]c3ccccc13)[C@@](C(=O)OC)(c1cc3c(cc1OC)N(C)[C@H]1[C@@](O)(C(=O)OC)[C@H](OC(C)=O)[C@]4(CC)C=CCN5CC[C@]31[C@@H]54)C2 [Vinorelbine]; settings: top dose 0.064 µM; top dose inferred
Method: as §1

[3] = compound: CNCc1ccc(-c2[nH]c3cc(F)cc4c3c2CCNC4=O)cc1 [AG-014699]; settings: top dose 5 µM; top dose inferred
Method: as §1

[4] = compound: COc1cc2nccc(Oc3ccc(NC(=O)C4(C(=O)Nc5ccc(F)cc5)CC4)cc3)c2cc1OC [XL-184]; settings: top dose 5.12 µM; top dose inferred
Method: as §1

[5] = compound: COc1cc2ncnc(Nc3cc(Br)c(O)c(Br)c3)c2cc1OC [WHI-P97]; settings: top dose 10.24 µM; top dose inferred
Method: as §1

[6] = compound: COc1cc2ncnc(Nc3ccc(F)c(Cl)c3)c2cc1OCCCN1CCOCC1 [Gefitinib]; settings: top dose 0.5 µM
Method: as §1

[7] = compound: N=C(N)NC(=N)NCCc1ccccc1 [Phenformin]; settings: top dose 4000 µM; top dose inferred
Method: as §1

[8] = compound: O=c1cc(CN2CCOCC2)occ1OCCCCCSc1ccnc2cc(C(F)(F)F)ccc12 [EHT 1864]; settings: top dose 10 µM; top dose inferred
Method: as §1

[9] = compound: O=c1cc(N2CCOCC2)oc2c(-c3cccc4c3sc3ccccc34)cccc12 [NU-7441]; settings: top dose 2 µM; top dose inferred
Method: as §1

| Cell Line | AUC [1] | IC50 [1] [µM] | AUC [2] | IC50 [2] [µM] | AUC [3] | IC50 [3] [µM] | AUC [4] | IC50 [4] [µM] | AUC [5] | IC50 [5] [µM] | AUC [6] | IC50 [6] [µM] | AUC [7] | IC50 [7] [µM] | AUC [8] | IC50 [8] [µM] | AUC [9] | IC50 [9] [µM] |
| --- | --- | --- | --- | --- | --- | --- | --- | --- | --- | --- | --- | --- | --- | --- | --- | --- | --- | --- |
| 42-MG-BA (glioma, adherent) | 0.956 | > 10.2 | 0.961 | > 0.064 | 0.92 | > 5 | 0.924 | > 5.12 | 0.98 | > 10.2 | 0.981 | > 0.5 | 0.869 | > 4000 | 0.889 | > 10 | 0.927 | > 2 |
| 201T (lung adenocarcinoma, adherent) | 0.95 | > 10.2 | 0.527 | 0.00484 | 0.981 | > 5 | 0.967 | > 5.12 | 0.964 | > 10.2 | 0.91 | > 0.5 | 0.716 | 1220 | 0.981 | > 10 | 0.934 | > 2 |
| 451Lu (melanoma, adherent) | 0.988 | > 10.2 | 0.547 | 0.00534 | 0.977 | > 5 | 0.982 | > 5.12 | 0.962 | > 10.2 | 0.977 | > 0.5 | 0.829 | 2350 | 0.918 | > 10 | 0.958 | > 2 |
| 639-V (bladder, adherent) | 0.992 | > 10.2 | 0.617 | 0.00797 | 0.992 | > 5 | 0.989 | > 5.12 | 0.99 | > 10.2 | 0.944 | > 0.5 | 0.912 | > 4000 | 0.979 | > 10 | 0.853 | 1.21 |
| 647-V (bladder, adherent) | 0.979 | > 10.2 | 0.69 | 0.0137 | 0.958 | > 5 | 0.979 | > 5.12 | 0.975 | > 10.2 | 0.925 | > 0.5 | 0.946 | > 4000 | 0.867 | 9.1 | 0.941 | > 2 |
| 5637 (bladder, adherent) | 0.923 | > 10.2 | 0.547 | 0.0053 | 0.94 | > 5 | 0.968 | > 5.12 | 0.94 | > 10.2 | 0.963 | > 0.5 | 0.976 | > 4000 | 0.93 | > 10 | 0.976 | > 2 |
| 8305C (thyroid, adherent) | 0.982 | > 10.2 | 0.534 | 0.00508 | 0.888 | > 5 | 0.942 | > 5.12 | 0.97 | > 10.2 | 0.974 | > 0.5 | 0.793 | 2500 | 0.933 | > 10 | 0.858 | > 2 |
| 8505C (thyroid, adherent) | 0.958 | > 10.2 | 0.538 | 0.00512 | 0.935 | > 5 | 0.937 | > 5.12 | 0.964 | > 10.2 | 0.977 | > 0.5 | 0.932 | > 4000 | 0.946 | > 10 | 0.963 | > 2 |
| 23132-87 (stomach, adherent) | 0.981 | > 10.2 | 0.538 | 0.00511 | 0.986 | > 5 | 0.924 | > 5.12 | 0.972 | > 10.2 | 0.986 | > 0.5 | 0.893 | > 4000 | 0.965 | > 10 | 0.961 | > 2 |
| AGS (stomach, adherent) | 0.99 | > 10.2 | 0.49 | 0.00376 | 0.973 | > 5 | 0.969 | > 5.12 | 0.978 | > 10.2 | 0.989 | > 0.5 | 0.85 | 2570 | 0.931 | > 10 | 0.921 | > 2 |
| ASH-3 (thyroid, adherent) | 0.988 | > 10.2 | 0.826 | 0.0388 | 0.988 | > 5 | 0.988 | > 5.12 | 0.988 | > 10.2 | 0.988 | > 0.5 | 0.937 | > 4000 | 0.983 | > 10 | 0.971 | > 2 |
| AU565 (breast, adherent) | 0.968 | > 10.2 | 0.496 | 0.0039 | 0.917 | > 5 | 0.959 | > 5.12 | 0.974 | > 10.2 | 0.89 | > 0.5 | 0.798 | 2160 | 0.938 | > 10 | 0.923 | > 2 |
| AsPC-1 (pancreas, adherent) | 0.963 | > 10.2 | 0.934 | > 0.064 | 0.926 | > 5 | 0.931 | > 5.12 | 0.973 | > 10.2 | 0.974 | > 0.5 | 0.904 | > 4000 | 0.918 | > 10 | 0.933 | > 2 |
| BFTC-905 (bladder, adherent) | 0.971 | > 10.2 | 0.531 | 0.00479 | 0.961 | > 5 | 0.967 | > 5.12 | 0.99 | > 10.2 | 0.959 | > 0.5 | 0.943 | > 4000 | 0.963 | > 10 | 0.895 | 1.84 |
| BHT-101 (thyroid, adherent) | 0.966 | > 10.2 | 0.944 | > 0.064 | 0.874 | > 5 | 0.907 | > 5.12 | 0.982 | > 10.2 | 0.976 | > 0.5 | 0.828 | 2580 | 0.915 | > 10 | 0.889 | > 2 |
